In publication PMC12136788:
The list shows a part of the results.

T1: UNK ZnF1-3 (human, UniProt Q9C0B0 31-174)
T1 sequence: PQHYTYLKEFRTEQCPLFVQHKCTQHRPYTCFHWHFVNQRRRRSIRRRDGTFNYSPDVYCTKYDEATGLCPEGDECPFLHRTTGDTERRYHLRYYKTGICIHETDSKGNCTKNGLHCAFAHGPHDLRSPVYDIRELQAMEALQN

B1: chr4:11166509:11166510:-_ENSMUSG00000040738_ENSMUST00000108319|mus_hu|FALSE|FALSE (ssRNA)
RNA: GGGAGUUCUACAGUCCGACGAUCGUUGAGAUGUACUAUCAGAAGAAGGUACAAGAACAUCACAUGCUUGACAAUAGCCAGCUAACCGCUUCUCAUCUAUGGUACAAUGAAGAGAUAAUGAACCUAUCUCUGCAAUUAGUUCUUCAACAGAGGAUUGAGCAUCA
B2: chr1:6885190:6885191:+_ENSG00000171735_ENST00000473578|hu_hu|FALSE|FALSE (ssRNA)
RNA: GGGAGUUCUACAGUCCGACGAUCUGAACAUUUCGGCAGACAUUCAAGCAGCUUUUUCGGUAAAAAGAUUUUUACAUGACUACUAUUGCUGUUCCCAUGAUCAUCUUCUAUAGGUGGCACGGUGUUGAGAACACAGUAGGUGCUCAACAGAGGAUUGAGCAUCA
B3: chr17:60770872:60770873:+_ENSG00000011028_ENST00000303375|hu_hu|hu_hu_hu_mus_True|8_58 (ssRNA)
RNA: GGGAGUUCUACAGUCCGACGAUCUCUUUAAAAAAAAAAAAAAAAAGACAAACAAUAAUAGCACAUUUCGAGAAUCAUCAACUACAGUAGAGGGUCCGCUUUGAGUUUUUGUUCACAUCGUCCUGCAACGCUGUCGCGGGACUGCAACAGAGGAUUGAGCAUCA
B4: 30248933_30249541_427_3pUTR_ENSMUSG00000024827_ENSMUST00000025778|mouse|control|control (ssRNA)
RNA: GGGAGUUCUACAGUCCGACGAUCAAGGGUCUCUUCAAGCGGAUGCUGGCGGGGACCGUCUUCUCGAUGAGCUCAUCAAUGCUCGCCAGCCCCAGCGCCUGCAGCAUCUCCCUCCGGUCUUUGUCUCCGGGGCCGAUGUGUCUCCAACAGAGGAUUGAGCAUCA
B5: 10608729_10609759_637_CDS_ENSG00000170222_ENST00000379774|human|control|control (ssRNA)
RNA: GGGAGUUCUACAGUCCGACGAUCAAGUCCUUGAGGACUAUUCAGUUCCGUAUUUGGAUUGUGCUCCCUCAAUAUCUUCAUACACUGCUCGUAUUUUGGAGAAGACUGAUCCACGCCCAAGACACUCAAGUCAUAUGCAUCAAGCAACAGAGGAUUGAGCAUCA
B6: chr11:75113396:75113397:+_ENSG00000149273_ENST00000524851|hu_hu|motif|central (ssRNA)
RNA: GGGAGUUCUACAGUCCGACGAUCCCCUCCUAGGAGUUUGUAACGCAGAGACUCUGCCUGGGCAAUGGCACACAGACCUCGGGUGGCCACCUUUUCAGCAUAAAGCUCUACACUGCCCUCUGGAAAGCCAAACCUCUUCUGAACCAACAGAGGAUUGAGCAUCA
B7: chr3:150289777:150289778:+_ENSG00000144895_ENST00000460851|hu_mus|FALSE|FALSE (ssRNA)
RNA: GGGAGUUCUACAGUCCGACGAUCUUUCGCAGGCAUAAAACCAUAAACAGCGCAAAACUCAGUAGAACUGGAAUUCCAAACUACAUCAUAAAUUGGGCCAUUUUUUGGUAAUUGUACCACAGCACUUUCUCCAUUUGUUGCAAUCAACAGAGGAUUGAGCAUCA
B8: chr12:46623017:46623018:-_ENSG00000111371_ENST00000398637|hu_hu|motif|central (ssRNA)
RNA: GGGAGUUCUACAGUCCGACGAUCGAGUCCCAAAAUCCCACUGCCCAUAAUGGCGUUGCUUAGGUUAAAAACAGACAUGCCGGAGGAGGUUGUACCUGGAAUAUACUCAUCACACUUCUUUUUUUCCAAAUGGCUGUUUGUGAGCAACAGAGGAUUGAGCAUCA
B9: chr19:34954956:34954957:+_ENSG00000126261_ENST00000246548|hu_mus|motif|central (ssRNA)
RNA: GGGAGUUCUACAGUCCGACGAUCGAUCAGCAAAGUAUAGUCCUGGAGGAAGUCGUCUGCUUGAAGCCGGCUGCCGUUUCGGAUUCCAAAAUCAGACAACUUCUUGGGGUUAUUGGCUUCUGUCUCUCCCUCUUCUGAAGAUAUCAACAGAGGAUUGAGCAUCA
B10: 148556073_148556459_5406_CDS_ENSMUSG00000063077_ENSMUST00000060537|mouse|control|control (ssRNA)
RNA: GGGAGUUCUACAGUCCGACGAUCUUUGAAAUGCAGGUAUCCUUUCUUAGAUACCACUGAUCCCGCUCUGACUUCUUCAAUGUCUGGAACAAGAUUGAGAAAUUCAUUCUUCCCUGCUCGGGCCAAAUAGGGUGUCUCCACAGUCAACAGAGGAUUGAGCAUCA
B11: chr4:115894766:115894767:+_ENSMUSG00000028698_ENSMUST00000030464|mus_hu|mus_mus_mus_hu_True|28_88 (ssRNA)
RNA: GGGAGUUCUACAGUCCGACGAUCUUCCACACGGAAAUGUACUUCGGGUUUCCAACGGGCCAGUACCAGUCCGGCCAAACUACCCGAACAGGGUCCUCCCCCUCUCUUCUCUCCUCCACAACAAAAUGCCCCCGAACUUUCAAGCAACAGAGGAUUGAGCAUCA
B12: 160215123_160215243_6580_3pUTR_ENSG00000186432_ENST00000334256|human|control|control (ssRNA)
RNA: GGGAGUUCUACAGUCCGACGAUCCUUGAGGCAGAGGUUGCAGUGAGCCGAGAUUGCGCCACUACACUCCAGCCUGGGCCACAGAGCGAGACUGUGUCUCAAAAAAAUAAAAAUAGAAGACUGCACUAAUGCCACCAACGUGCACAACAGAGGAUUGAGCAUCA
B13: 81634765_81635152_1842_CDS_ENSG00000153956_ENST00000356860|human|control|control (ssRNA)
RNA: GGGAGUUCUACAGUCCGACGAUCAACAUAACCAUUAGGAUCGAUUGCAAAGUAAUACCCAUUGGGGCACAGUGUAAAACGUGGUGUCAGUCUUUUAAUAUCUUCCAAAGACACAUCUACUCCCAUCACACCAAGAAUCAGCUGCAACAGAGGAUUGAGCAUCA
B14: chr2:48026839:48026840:+_ENSG00000116062_ENST00000540021|hu_hu|hu_hu_hu_mus_False|68_68 (ssRNA)
RNA: GGGAGUUCUACAGUCCGACGAUCAUAGUGAGCCACUAGCGUCCUAAAUCUGGAACAGUGGCGGUCAUCUGAAAACUGGCCGAUGAAAAACUUGCCCAGUGAAGUGUCCACAAAGCAAACACCAUACACACGAGUGUGACCAGACAACAGAGGAUUGAGCAUCA
B15: chr14:89338683:89338684:+_ENSG00000165533_ENST00000346301|hu_hu|hu_hu_hu_mus_False|68_108 (ssRNA)
RNA: GGGAGUUCUACAGUCCGACGAUCGUGGUUGUUGUUGACCAGGGCCAGCCUGAAGCAUUGGUGGGCCAAAUUUGUAUCUCCGAUUCCCACAGCUAUGUGCCCCAGGUUGUACCAGACAUCAGCUGCCUCUUCUUCAUUUUCAGCCAACAGAGGAUUGAGCAUCA
B16: chr11:54532201:54532202:-_ENSMUSG00000052298_ENSMUST00000064104|mus_hu|motif|central (ssRNA)
RNA: GGGAGUUCUACAGUCCGACGAUCUAGGAUUUAAACAAACAUUUUAAUGAGAACACAAACCACUGACUCUGGCUUAACACCACACUCGGACAGAAAAGAAGAAACCUUUACAGAAAUAUUUGAAAUAUACAAAAUUCGUGCAAGCAACAGAGGAUUGAGCAUCA
B17: chr3:51263940:51263941:+_ENSMUSG00000063273_ENSMUST00000029303|mus_mus|FALSE|FALSE (ssRNA)
RNA: GGGAGUUCUACAGUCCGACGAUCGUAAAAUGGAUGCUGUCGAAGUACAUCUUCUAGUUUUAAUAAGUCCACAUAUGAUCUAAGGGUGAUCUUCCUCAUACAGUAUGUAUGAAAGUCAAACUGGUCAUCGGUGAUUUCUAUAAACAACAGAGGAUUGAGCAUCA
B18: chr11:18503389:18503390:-_ENSG00000074319_ENST00000251968|hu_hu|hu_hu_hu_mus_True|48_88 (ssRNA)
RNA: GGGAGUUCUACAGUCCGACGAUCAUUUUCCAUUUUCUCCAGAGCAGAACUGAGUUCUUCAUCCUUCUUUUUCAAAAGUUCUAUGUUUUUAUCAACCUCAGCUACUUCUUGAUCUAAGCGGGUGACCAUCUCUUCCAGUUUCUGCAACAGAGGAUUGAGCAUCA
B19: chr8:117878989:117878990:-_ENSG00000164754_ENST00000297338|hu_hu|hu_hu_hu_mus_True|1_18 (ssRNA)
RNA: GGGAGUUCUACAGUCCGACGAUCCCAGAGGCCCUCGUUUACUGAGGACAAAAUGUGCGUAGAACAUUUUUCUUAUUUGCUAUGAAAUAAGAAGAAACCUGGAUCUCGGCGGGGAGCUUGGGCGGGCGGGUGGCCCGGGGGAGGCAACAGAGGAUUGAGCAUCA
B20: chr7:34932688:34932689:-_ENSMUSG00000052997_ENSMUST00000102746|mus_hu|FALSE|FALSE (ssRNA)
RNA: GGGAGUUCUACAGUCCGACGAUCAAGAAGCUUCUUUCUUGGGUUUGGUUGUUUAUUCAAAAAAAUUGUUCUGCACUGGUCUAUUUUUCCUGAUAAAAUCUUCAAUCCUUCCAAUACUAUCAACCCAGCAAUUACUGCAUUAGUCAACAGAGGAUUGAGCAUCA
B21: chrX:71549400:71549401:+_ENSMUSG00000019087_ENSMUST00000019231|mus_hu|mus_mus_mus_hu_False|58_108 (ssRNA)
RNA: GGGAGUUCUACAGUCCGACGAUCGCAAGGAAGAGGAGGAAGCUCUUCAGUCCAGUGCGCUGCAGGGUGGGAAAGCACAACCUAGACCACCGUCCCACCCUCAACCCCCCCACUGGCACAGGGUCACACAAUCUGGGUCAAAGACAACAGAGGAUUGAGCAUCA
B22: chr7:149068622:149068623:-_ENSMUSG00000025139_ENSMUST00000001950|mus_hu|mus_mus_mus_hu_False|48_48 (ssRNA)
RNA: GGGAGUUCUACAGUCCGACGAUCGUGAGGCCUCUGAGUGUGGCUUGUGGUCUGUCCUGGGUUAGAGUUGUUAAUAUCACGGAACAUACCACUUAAGACGUUCCAGUCCCGCCUGACACCUUCAUUCCCAAUGGAGAAGAAAUCCAACAGAGGAUUGAGCAUCA

What follows are binders tested against T1, UNK ZnF1-3 (assay: nsRBNS (natural sequence RNA bind-n-seq); RBNS binding buffer (assumed for nsRBNS): 25 mM Tris pH 7.5, 150 mM KCl, 3 mM MgCl2, 0.01% Triton X-100, 500 ug/ml BSA, 20 U/ml SUPERase-In, 4 C; UNK is unkempt and MSI1 is Musashi-1; names of the RNAs are library labels; protein concentration not given here; high values mean tight binding).

Binder | binding signal [enrichment R]
B1 | 0.897
B2 | 0.722
B3 | 2.3
B4 | 0.515
B5 | 1.02
B6 | 0.986
B7 | 0.84
B8 | 1.37
B9 | 0.918
B10 | 0.618
B11 | 1.15
B12 | 2.24
B13 | 1.51
B14 | 1.16
B15 | 0.571
B16 | 1.81
B17 | 0.906
B18 | 0.457
B19 | 1.28
B20 | 0.761
B21 | 1.36
B22 | 0.661
